Experimental data taken from patent publication US20260265390A1 (SHANDONG SIMCERE BIOPHARMACEUTICAL, published 2026).

Tests used:
[1] = target: T1, human BCMA (B cell maturation antigen), expressed on cells (human, UniProt Q02223 1-184); assay: FACS, Flp-inCHO-human BCMA cells
T1 construct: whole, on cells; Overexpressed on Flp-in CHO cells; also called Flp-inCHO-human BCMA cells; CD269
T1 sequence (looked up): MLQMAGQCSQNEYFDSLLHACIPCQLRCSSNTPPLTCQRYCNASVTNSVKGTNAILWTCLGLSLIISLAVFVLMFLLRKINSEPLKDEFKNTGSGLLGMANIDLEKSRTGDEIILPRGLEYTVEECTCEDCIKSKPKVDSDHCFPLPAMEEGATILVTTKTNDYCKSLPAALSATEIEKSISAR
Method: (§1) Flp-inCHO-human BCMA cells and CHOK1-human GPRC5D cells were scale-up cultured in T-75 cell culture flask to the logarithmic growth phase, respectively, and the cells were pipetted to obtain a single cell suspension. After the cells were counted and centrifuged, the cell precipitate was resuspended to 2×10⁶ cells per milliliter with a FACS buffer (PBS+2% fetal bovine serum). The suspension was added to a 96-well FACS reaction plate at 50 μl/well. 8 concentrations of the anti-BCMA-GPRC5D-CD3 antibodies or control antibodies were added at 50 μl/well, wherein gradient dilution was performed at a dilution ratio of 5 from a concentration of 100 nM. The cells were incubated at 4° C. for 1 h. The obtained mixture was centrifuged and washed 3 times with a PBS buffer. […] The obtained mixture was centrifuged and washed 3 times with a PBS buffer. 100 μl of the mixture was taken for detection and result analysis by FACS (FACS Canto™, purchased from BD Company). Data analysis was performed by software (FlowJo) to obtain the mean fluorescence intensity (MFI) of the cells. Then, a software (GraphPad Prism8) was used for analysis, data fitting and EC50 calculation.

[2] = target: T2, human CD3, endogenous on Jurkat cells and on activated human PBMC (human, UniProt P07766; P04234); assay: FACS, activated human PBMC
T2 construct: whole, on cells; CD3 complex as it stands on T cells

[3] = target: T3, monkey CD3, on activated monkey PBMC (monkey); assay: FACS, activated monkey PBMC
T3 construct: whole, on cells

[4] = target: T2, human CD3, endogenous on Jurkat cells …; assay: FACS, Jurkat cells
[5] = target: T4, human GPRC5D, expressed on cells (human, UniProt Q9NZD1 1-345); assay: FACS, CHOK1-human GPRC5D cells
T4 construct: whole, on cells; Overexpressed on CHOK1 cells; also called CHOK1-human GPRC5D cells
Method: as §1

T2 sequence (P07766 23-207, chain 1 of 2): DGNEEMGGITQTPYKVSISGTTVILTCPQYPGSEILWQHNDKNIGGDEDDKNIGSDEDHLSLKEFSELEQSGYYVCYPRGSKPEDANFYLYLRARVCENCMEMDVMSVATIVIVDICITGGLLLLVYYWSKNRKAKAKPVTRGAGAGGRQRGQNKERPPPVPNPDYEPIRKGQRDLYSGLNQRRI
T2 sequence (P04234 22-171, chain 2 of 2, further chain): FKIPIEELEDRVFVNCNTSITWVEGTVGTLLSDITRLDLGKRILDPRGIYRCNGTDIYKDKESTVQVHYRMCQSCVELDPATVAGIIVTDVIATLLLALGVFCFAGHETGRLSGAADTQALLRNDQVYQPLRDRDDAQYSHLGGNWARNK
T4 sequence (Q9NZD1 whole entry): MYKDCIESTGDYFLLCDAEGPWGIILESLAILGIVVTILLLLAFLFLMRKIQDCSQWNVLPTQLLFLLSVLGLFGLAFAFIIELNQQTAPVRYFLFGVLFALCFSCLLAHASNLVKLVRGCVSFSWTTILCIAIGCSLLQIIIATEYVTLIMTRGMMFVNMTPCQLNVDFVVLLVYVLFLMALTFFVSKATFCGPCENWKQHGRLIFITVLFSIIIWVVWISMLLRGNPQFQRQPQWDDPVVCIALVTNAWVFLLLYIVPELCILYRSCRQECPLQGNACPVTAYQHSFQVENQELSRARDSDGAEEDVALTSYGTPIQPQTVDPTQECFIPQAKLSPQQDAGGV

B1: Tri-17 anti-BCMA-GPRC5D-CD3 trispecific antibody (other)
VHH: EVQLVESGGGLVQPGGSLRLSCSASGFTLDYYMIGWFRQAPGKEREGLSSISPADGSTYYADSVKGRFTISRDSSKNTVYLQMNSLRAEDTAVYYCAAGNEATISWGFGPWEYDYWGQGTMVTVSS
VH 1: EVQLVQSGAEVKKPGSSVKVSCKASGYTFTSYGISWVRQAPGQGLEWMGEIYPRSGNTYYNEKFKGRVTLTADKSTSTAYMELSSLRSEDTAVYYCARGRAYGRNYPMDYWGQGTTVTVSS
VL 1: EIVLTQSPATLSLSPGERATLSCRASQSIGTSIHWYQQKPGQSPRLLIKYASESISGIPARFSGSGSGTDFTLTISSLEPEDFAVYYCQQSNSWPYTFGGGTKVEIK
VH 2: EVQLVESGGGVVQPGRSLRLSCAASGFTFTDYYMSWVRQAPGKGLEWVAMSRNKAKGHTIEYSSSVKGRFTISRDNSKNTLYLQMNSLRAEDTAVYYCARDTYESYDGYFDVWGQGTTVTVSS
VL 2: DIVMTQSPDSLAVSLGERATINCKSSQSLFNSRSRKNYLAWYQQKPGQTPKLLIYWASIRESGVPDRFSGSGSGTDFTLTISSLQAEDVAVYYCKQSYYLYTFGQGTKLEIK
chain: [letters of human IgG4 Fc with S228P F234A L235A (EU numbers) not shown]
notes: Trispecific antibody; Symmetrical (purification method A)
Work on B1 yielded an EC50 [1] of 2.97 nM.

B2: Tri-59 anti-BCMA-GPRC5D-CD3 trispecific antibody (other)
VHH: EVQLVESGGGLVQPGGSLRLSCAASESISSIHIMAWYRQAPGKQRELVAGIRNDGSTVYVDSVKGRFTISRDNAKNSLYLQMNSLRAEDTAVYYCNADQGFGSYSEWERRSRWGQGTTVTVSS
VH 1: EVQLVQSGAEVKKPGSSVKVSCKASGYTFTSYGISWVRQAPGQGLEWMGEIYPRSGNTYYNEKFKGRVTLTADKSTSTAYMELSSLRSEDTAVYYCARGRAYGRNYPMDYWGQGTTVTVSS
VL 1: EIVLTQSPATLSLSPGERATLSCRASQSIGTSIHWYQQKPGQSPRLLIKYASESISGIPARFSGSGSGTDFTLTISSLEPEDFAVYYCQQSNSWPYTFGGGTKVEIK
VH 2: EVQLVESGGGVVQPGRSLRLSCAASGFTFTDYYMSWVRQAPGKGLEWVAMSRNKAKGHTIEYSSSVKGRFTISRDNSKNTLYLQMNSLRAEDTAVYYCARDTYESYDGYFDVWGQGTTVTVSS
VL 2: DIVMTQSPDSLAVSLGERATINCKSSQSLFNSRSRKNYLAWYQQKPGQTPKLLIYWASIRESGVPDRFSGSGSGTDFTLTISSLQAEDVAVYYCKQSYYLYTFGQGTKLEIK
chain: [letters of human IgG4 Fc with S228P F234A L235A (EU numbers) not shown]
notes: as for B1
B2 was tested, and the EC50 [2] was 92.1 nM, the EC50 [3] was 249 nM and the EC50 [1] was 1.21 nM.

B3: Tri-60 anti-BCMA-GPRC5D-CD3 trispecific antibody (other)
VH 1: EGQMVQSGAEVKKPGSSVKVSCKASGYMFTDHTFHWVRQAPGQGLEWMGYIYPRDQNTKYNEKFKGRVTITADKSTSTAYMELSSLRSEDTAVYYCARAGYYGSSHAMDYWGQGTTVTVSS
VL 1: DIQMTQSPSSLSASVGDRVTITCKASQDVSTAVAWYQQKPGKSPRLLIYSASSRYTGVPSRFSGSGSGTDFTFTISSLQPEDIATYYCQQLYSTPWTFGGGTKVEIK
VH 2: EVQLVQSGAEVKKPGSSVKVSCKASGYTFTSYGISWVRQAPGQGLEWMGEIYPRSGNTYYNEKFKGRVTLTADKSTSTAYMELSSLRSEDTAVYYCARGRAYGRNYPMDYWGQGTTVTVSS
VL 2: EIVLTQSPATLSLSPGERATLSCRASQSIGTSIHWYQQKPGQSPRLLIKYASESISGIPARFSGSGSGTDFTLTISSLEPEDFAVYYCQQSNSWPYTFGGGTKVEIK
VH 3: EVQLVESGGGVVQPGRSLRLSCAASGFTFTDYYMSWVRQAPGKGLEWVAMSRNKAKGHTIEYSSSVKGRFTISRDNSKNTLYLQMNSLRAEDTAVYYCARDTYESYDGYFDVWGQGTTVTVSS
VL 3: DIVMTQSPDSLAVSLGERATINCKSSQSLFNSRSRKNYLAWYQQKPGQTPKLLIYWASIRESGVPDRFSGSGSGTDFTLTISSLQAEDVAVYYCKQSYYLYTFGQGTKLEIK
chain: [letters of human IgG4 Fc with S228P F234A L235A (EU numbers) not shown]
notes: as for B1
With B3 the “Maximum mean fluorescence intensity” value [2] was 2690, the “Maximum mean fluorescence intensity” value [3] was 3570 and the “Maximum mean fluorescence intensity” value [4] was 2230. It also gave an EC50 [1] of 6.84 nM and an EC50 [5] of 0.92 nM.

B4: Tri-29 anti-BCMA-GPRC5D-CD3 trispecific antibody (other)
VHH: EVQLVESGGGLVQPGGSLRLSCSASGFTLDYYMIGWFRQAPGKEREGLSSISPADGSTYYADSVKGRFTISRDSSKNTVYLQMNSLRAEDTAVYYCAAGNEATISWGFGPWEYDYWGQGTMVTVSS
VH 1: EVQLVQSGAEVKKPGSSVKVSCKASGYTFTSYGISWVRQAPGQGLEWMGEIYPRSGNTYYNEKFKGRVTLTADKSTSTAYMELSSLRSEDTAVYYCARGRAYGRNYPMDYWGQGTTVTVSS
VL 1: EIVLTQSPATLSLSPGERATLSCRASQSIGTSIHWYQQKPGQSPRLLIKYASESISGIPARFSGSGSGTDFTLTISSLEPEDFAVYYCQQSNSWPYTFGGGTKVEIK
VH 2: EVQLVESGGGVVQPGRSLRLSCAASGFTFTDYYMSWVRQAPGKGLEWVAMSRNKAKGHTIEYSSSVKGRFTISRDNSKNTLYLQMNSLRAEDTAVYYCARDTYESYDGYFDVWGQGTTVTVSS
VL 2: DIVMTQSPDSLAVSLGERATINCKSSQSLFNSRSRKNYLAWYQQKPGQTPKLLIYWASIRESGVPDRFSGSGSGTDFTLTISSLQAEDVAVYYCKQSYYLYTFGQGTKLEIK
chain: [letters of human IgG4 Fc with S228P F234A L235A (EU numbers) not shown]
notes: as for B1
Work on B4 yielded an EC50 [2] of 161 nM and an EC50 [1] of 2.27 nM.

B5: Tri-35 anti-BCMA-GPRC5D-CD3 trispecific antibody (other)
VHH: EVQLVESGGGLVQPGGSLRLSCSASGFTLDYYMIGWFRQAPGKEREGLSSISPADGSTYYADSVKGRFTISRDSSKNTVYLQMNSLRAEDTAVYYCAAGNEATISWGFGPWEYDYWGQGTMVTVSS
VH 1: EVQLVQSGAEVKKPGSSVKVSCKASGYTFTSYGISWVRQAPGQGLEWMGEIYPRSGNTYYNEKFKGRVTLTADKSTSTAYMELSSLRSEDTAVYYCARGRAYGRNYPMDYWGQGTTVTVSS
VL 1: EIVLTQSPATLSLSPGERATLSCRASQSIGTSIHWYQQKPGQSPRLLIKYASESISGIPARFSGSGSGTDFTLTISSLEPEDFAVYYCQQSNSWPYTFGGGTKVEIK
VH 2: EVQLVESGGGVVQPGRSLRLSCAASGFTFTDYYMSWVRQAPGKGLEWVAMSRNKAKGHTIEYSSSVKGRFTISRDNSKNTLYLQMNSLRAEDTAVYYCARDTYESYDGYFDVWGQGTTVTVSS
VL 2: DIVMTQSPDSLAVSLGERATINCKSSQSLFNSRSRKNYLAWYQQKPGQTPKLLIYWASIRESGVPDRFSGSGSGTDFTLTISSLQAEDVAVYYCKQSYYLYTFGQGTKLEIK
chain: [letters of human IgG4 Fc with S228P F234A L235A (EU numbers) not shown]
notes: as for B1
Binder B5 has an EC50 [2] of 81.4 nM and an EC50 [1] of 2.53 nM.

B6: Tri-32 anti-BCMA-GPRC5D-CD3 trispecific antibody (other)
VHH: EVQLVESGGGLVQPGGSLRLSCSASGFTLDYYMIGWFRQAPGKEREGLSSISPADGSTYYADSVKGRFTISRDSSKNTVYLQMNSLRAEDTAVYYCAAGNEATISWGFGPWEYDYWGQGTMVTVSS
VH 1: EVQLVQSGAEVKKPGSSVKVSCKASGYTFTSYGISWVRQAPGQGLEWMGEIYPRSGNTYYNEKFKGRVTLTADKSTSTAYMELSSLRSEDTAVYYCARGRAYGRNYPMDYWGQGTTVTVSS
VL 1: EIVLTQSPATLSLSPGERATLSCRASQSIGTSIHWYQQKPGQSPRLLIKYASESISGIPARFSGSGSGTDFTLTISSLEPEDFAVYYCQQSNSWPYTFGGGTKVEIK
VH 2: EVQLVESGGGVVQPGRSLRLSCAASGFTFTDYYMSWVRQAPGKGLEWVAMSRNKAKGHTIEYSSSVKGRFTISRDNSKNTLYLQMNSLRAEDTAVYYCARDTYESYDGYFDVWGQGTTVTVSS
VL 2: DIVMTQSPDSLAVSLGERATINCKSSQSLFNSRSRKNYLAWYQQKPGQTPKLLIYWASIRESGVPDRFSGSGSGTDFTLTISSLQAEDVAVYYCKQSYYLYTFGQGTKLEIK
chain: [letters of human IgG4 Fc with S228P F234A L235A (EU numbers) not shown]
notes: as for B1
With B6 the EC50 [4] was 370 nM and the EC50 [1] was 2.03 nM.

B7: Tri-55 anti-BCMA-GPRC5D-CD3 trispecific antibody (other)
VHH: EVQLVESGGGLVQPGGSLRLSCAASESISSIHIMAWYRQAPGKQRELVAGIRNDGSTVYVDSVKGRFTISRDNAKNSLYLQMNSLRAEDTAVYYCNADQGFGSYSEWERRSRWGQGTTVTVSS
VH 1: EVQLVQSGAEVKKPGSSVKVSCKASGYTFTSYGISWVRQAPGQGLEWMGEIYPRSGNTYYNEKFKGRVTLTADKSTSTAYMELSSLRSEDTAVYYCARGRAYGRNYPMDYWGQGTTVTVSS
VL 1: EIVLTQSPATLSLSPGERATLSCRASQSIGTSIHWYQQKPGQSPRLLIKYASESISGIPARFSGSGSGTDFTLTISSLEPEDFAVYYCQQSNSWPYTFGGGTKVEIK
VH 2: EVQLVESGGGVVQPGRSLRLSCAASGFTFTDYYMSWVRQAPGKGLEWVAMSRNKAKGHTIEYSSSVKGRFTISRDNSKNTLYLQMNSLRAEDTAVYYCARDTYESYDGYFDVWGQGTTVTVSS
VL 2: DIVMTQSPDSLAVSLGERATINCKSSQSLFNSRSRKNYLAWYQQKPGQTPKLLIYWASIRESGVPDRFSGSGSGTDFTLTISSLQAEDVAVYYCKQSYYLYTFGQGTKLEIK
chain: [letters of human IgG4 Fc with S228P F234A L235A (EU numbers) not shown]
notes: as for B1
B7 was tested, and the EC50 [2] was 149 nM, the EC50 [3] was 159 nM and the EC50 [4] was 179 nM. It also gave an EC50 [1] of 0.92 nM.
